Laboratory results published in PubChem BioAssay AID686979 (National Center for Advancing Translational Sciences (NCATS), 2013).
“And” between values parts separate entries of the source, which are not always exact repeats. Equal entries are not always repeated. Screen size: about 420,000 compounds; about 50,000 (12%) were called active. The inconclusive results got no clear call from the source; some entries with a clear call stand among them for comparison. The call rests on the fitted dose curve; in most records, active means well fitted inhibition curve with a large enough effect; inconclusive means small, poorly fitted or top-dose-only effect; inactive means flat fitted curve, though single readings scatter. Potencies beside an inconclusive call are fits to weak or partial responses and may not hold up.

Experiment: qHTS for Inhibitors of human tyrosyl-DNA phosphodiesterase 1 (TDP1): qHTS in cells in presence of CPT; further: nearly all actives have a fitted effect of over 55% in size
Settings: chicken DT40 Tdp1-/-;hTDP1 cells + 20 nM CPT, ATP luminescence, 48 h; series mostly up to 46.2 µM
Method in brief: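 Cell growth measured by CellTiter-Glo luminescence after a minimum 48 h, 37 C compound exposure with 20 nM CPT in Tdp1-knockout DT40 cells stably expressing hTDP1, seeded 400/well; qHTS titration format.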
Potency means the concentration at half of the fitted maximal effect; tags describe the fitted curve by direction and shape.

| SMILES | Potency |
| --- | --- |
| COc1ccc(NC(=O)CN(C)C(=O)c2ccc(N3CCCCC3)c([N+](=O)[O-])c2)cc1 | inconclusive: 29.1 µM [inhibitor, single point] |
| Cc1cc(CNC(=O)c2cccnc2Cl)c2ccccc2n1 | inconclusive: 16.4 µM [inhibitor, single point] |
| COc1ccc(C(=O)N2CCN(CCNC(=O)C(=O)Nc3ccc(Br)cc3)CC2)cc1 | inconclusive: 20.6 µM [inhibitor, single point] |
| COc1ccc(NC(=O)c2ccc(NC(=O)CN3CCN(c4ccc(O)cc4)CC3)cc2)cc1 | inactive |
| CCOc1ccc2[nH]c(=O)c(CN(CC3COCCO3)C(=O)c3ccc(C)cc3)cc2c1 (stereo unspecified) | inconclusive: 29.1 µM [inhibitor, single point] |
| CCc1cccc(NC(=O)Cn2c(-c3ccc(F)cc3)cc(C(C)=O)c2C)c1 | active: 13 µM |
| N#CC(C(=O)NCc1ccco1)c1nc2ccccc2nc1N1CCOCC1 (stereo unspecified) | inconclusive: 29.1 µM [inhibitor, single point] |
| O=C(NCc1ccco1)/C(=C/c1ccc(Cl)cc1)NC(=O)c1ccco1 | inactive |
| CCOc1ccccc1CNCc1ccc(C(=O)O)cc1 | inactive |
| Cc1cccc(C)c1OCC(=O)Nc1ccc2c(c1)OCCO2 | active: 18.4 µM |
| OC[C@@H](O)C1OC2NC(=S)OC2C1O (stereo partly specified) | inactive |
| CCCCNS(=O)(=O)c1ccc(NC(=O)c2c(-c3ccccc3)noc2C)cc1 | inconclusive: 9.2 µM [inhibitor, partial curve, poor fit] |
| Cc1ccc(NC(=O)CC2(CC(=O)O)CCCC2)c(C)c1 | inactive |
| CCc1ccccc1-n1c(SCC(=O)Nc2ccc(C)cc2)nc2n[nH]c(C)c2c1=N | active: 7.31 µM |
| O=C(O)Cc1ccc(-c2ccccc2-c2ccccc2)cc1 | active: 14.6 µM |
| O=C1Nc2ccccc2C12OCC(COc1ccc(Cl)cc1)O2 (stereo unspecified) | inconclusive: 29.1 µM [inhibitor, single point] |
| CCN(CC)c1ccccc1/C=C/[n+]1ccc(CCCCI)c2ccccc21 | active: 0.631 µM |
| Cc1ccccc1OCC(=O)N/N=C/c1ccc(Sc2nc3ccccc3s2)o1 | inconclusive: 29.1 µM [inhibitor, single point] |
| COc1ccc(/C=N/NC(=O)c2nnn(-c3nonc3N)c2CN(C)c2ccccc2)cc1 | inconclusive: 29.1 µM [inhibitor, single point] |
| CC(C)(C)c1csc(NC(=O)c2ccc(Cl)s2)n1 | inconclusive: 25.9 µM [inhibitor, single point] |
| Cc1ccc2c(c1)[C@H]1[C@H](CO2)[C@H](c2ccccc2)[C@]2(C)C(=O)NCC(=O)N12 | inactive |
| Cc1ccc(Cl)cc1-c1cc(C(=O)NCc2ccco2)[nH]n1 | inconclusive: 29.1 µM [inhibitor, single point] |
| O=C(OCC(=O)N(C1CCCCC1)C1CCCCC1)c1ccc(O)cc1 | inconclusive: 10.3 µM [inhibitor, single point] |

| SMILES | Potency |
| --- | --- |
| Cc1cccc(NS(=O)(=O)c2ccc3c(c2)n(C)c(=O)n3C)c1C | active: 23.1 µM |
| Fc1ccc(CNc2nc(-c3ccc(Cl)cc3)cc(C(F)(F)F)n2)cc1 | active: 23.1 µM |
| COCON1C(=O)CN(C(C)=O)C1c1ccc(Cl)cc1Cl (stereo unspecified) | inactive |
| CC1CCN(c2ccc(-c3cccs3)nn2)CC1 | inconclusive: 11.6 µM [inhibitor, partial curve] |
| OCCN1CCN(c2nc(N3CCCCC3)nc(N3CCCCC3)n2)CC1 | inconclusive: 29.1 µM [inhibitor, single point] |
| Cc1onc(-c2ccccc2Cl)c1C(N)=O | inactive |
| CCn1c(=O)c(C(=O)Nc2ccc(C)cc2)c(O)c2ccccc21 | inconclusive: 29.1 µM [inhibitor, single point] |
| Cc1ccccc1N1C(=O)Cc2ccccc2C1=O | inconclusive: 18.4 µM [inhibitor, partial curve] |
| Cc1ccc(NC(=O)C2CCN(S(=O)(=O)c3ccc4c(c3)CCCC(=O)N4)CC2)c(Br)c1 | inactive and inconclusive: 16.4 µM [inhibitor, partial curve] |
| COCCCNC(=O)CSc1nc2cc(S(=O)(=O)N3CCCCC3)ccc2o1 | inactive |
| CC(=O)NCCNc1nc2cc(-c3ccccc3C)sc2c(=O)n1C | inconclusive: 14.6 µM [inhibitor, single point] |
| C[C@@H]1CC=C[C@@H]2[C@H]1C(=O)N(Cc1ccccc1)[C@H]2c1ccccc1Br | active: 18.4 µM |
| COc1ccc(NC(=O)CN2CCCN(Cc3ccccc3)S2(=O)=O)cc1 | inconclusive: 29.1 µM [inhibitor, single point] |
| Cc1ccc(N2C(=O)C(Cl)=C(N3CCCCCC3)C2=O)c(C)c1 | inconclusive: 29.1 µM [inhibitor, single point] |
| COc1cc(C(=O)Nc2oc(-c3ccccc3)c(-c3ccccc3)c2C#N)cc(OC)c1OC | inconclusive: 18.4 µM [inhibitor, partial curve] |
| CCOC(=O)N1CCN(C(=O)CCCn2c(=S)[nH]c3ccc(Br)cc3c2=O)CC1 | inconclusive: 29.1 µM [inhibitor, single point] |
| CCc1nnc(NC(=O)CSc2nnc(-c3ccccc3OC)n2-c2ccc(C)cc2)s1 | inactive |
| Cn1c(COc2ccccc2)nnc1SCC(=O)c1cccc([N+](=O)[O-])c1 | inconclusive: 29.1 µM [inhibitor, partial curve, poor fit] |
| CCc1cccc(C)c1NC(=O)CSc1nnc(-c2cc3cc(Br)ccc3o2)n1CC | active: 23.1 µM |
| Cc1cc(C)c(S(=O)(=O)N2CCN(C(=O)CC(C)n3nc(C)nc3C)CC2)c(C)c1 (stereo unspecified) | inconclusive: 29.1 µM [inhibitor, single point] |
| COc1ccc(NC(=O)Cn2nnc(C(=O)Nc3ccccc3C)c2N)cc1 | inactive |
| O=C(CCNS(=O)(=O)c1ccc(Br)cc1)NCc1ccc2c(c1)OCO2 | inconclusive: 25.9 µM [inhibitor, partial curve] |
| Cc1ccc(-n2c(COc3ccccc3)nnc2SCC(=O)O)cc1 | inactive |
